# Data: article PMC4336329 (PLoS ONE, 2015)
# Out of some 310,000 compounds screened, about 14,000 (4.5%) showed an effect of 50% or more. Effects have a minus sign here. Some of the results follow.
# Target: human ether-à-go-go-related gene (hERG) potassium channel (human, UniProt Q12809)
# Assay: primary screen, population patch clamp on CHO cells stably expressing hERG
# 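Note: peak tail current of the secondary pulse compared with the same well before compound.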
# human ether-à-go-go-related gene (hERG) potassium channel, sequence (Q12809 whole entry, looked up): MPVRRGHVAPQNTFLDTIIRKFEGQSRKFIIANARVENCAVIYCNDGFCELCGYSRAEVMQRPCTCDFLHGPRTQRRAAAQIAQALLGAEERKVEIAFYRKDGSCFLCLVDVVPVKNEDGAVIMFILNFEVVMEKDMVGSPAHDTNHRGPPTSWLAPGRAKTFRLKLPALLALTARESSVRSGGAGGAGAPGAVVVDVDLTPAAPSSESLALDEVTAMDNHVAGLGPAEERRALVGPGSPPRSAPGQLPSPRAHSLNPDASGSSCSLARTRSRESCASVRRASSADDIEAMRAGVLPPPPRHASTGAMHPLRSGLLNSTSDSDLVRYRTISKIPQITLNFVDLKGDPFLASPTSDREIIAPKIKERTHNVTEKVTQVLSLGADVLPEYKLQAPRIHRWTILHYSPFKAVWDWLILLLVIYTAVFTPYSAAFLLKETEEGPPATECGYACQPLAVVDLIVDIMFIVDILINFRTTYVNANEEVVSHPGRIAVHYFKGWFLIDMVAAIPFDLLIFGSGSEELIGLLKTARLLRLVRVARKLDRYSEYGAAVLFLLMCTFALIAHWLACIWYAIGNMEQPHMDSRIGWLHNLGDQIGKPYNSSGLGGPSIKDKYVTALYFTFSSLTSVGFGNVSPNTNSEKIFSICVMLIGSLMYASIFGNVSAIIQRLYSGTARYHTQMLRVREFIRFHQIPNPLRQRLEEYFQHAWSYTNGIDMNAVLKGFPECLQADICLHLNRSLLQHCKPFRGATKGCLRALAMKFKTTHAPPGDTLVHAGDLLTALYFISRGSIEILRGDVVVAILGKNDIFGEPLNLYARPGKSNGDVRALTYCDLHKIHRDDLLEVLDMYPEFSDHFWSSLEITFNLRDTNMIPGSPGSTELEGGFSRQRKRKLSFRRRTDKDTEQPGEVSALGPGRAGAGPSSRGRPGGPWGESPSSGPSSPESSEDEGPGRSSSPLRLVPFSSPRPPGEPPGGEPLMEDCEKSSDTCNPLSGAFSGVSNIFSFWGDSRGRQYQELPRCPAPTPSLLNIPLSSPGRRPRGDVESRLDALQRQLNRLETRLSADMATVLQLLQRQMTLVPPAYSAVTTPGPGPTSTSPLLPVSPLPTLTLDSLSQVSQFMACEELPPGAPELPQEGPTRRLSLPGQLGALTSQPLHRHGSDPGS
row,SMILES,"hERG current change (%, negative = inhibition) at 10uM [%]"
1,Cc1cccc(C)c1OCC(=O)OCC(=O)Nc1ccc(Cl)cn1,6.45
2,c1ccc(-c2csc3ncn4cnnc4c23)cc1,-8.49
3,CSc1ccc(/C=C/C(=O)N2CCCN(C)CC2)cc1.Cl,-26.6
4,CC1CN(c2oc(-c3ccccc3Cl)nc2C#N)CC(C)O1 (centres unmarked),2.37
5,COc1ccc(C(C)=O)cc1CSc1nnc(Nc2ccc(C)cc2)s1,15
6,CC(NC(=S)Nc1ccccc1)C(c1cccs1)N1CCOCC1 (centres unmarked),-4.86
7,CCCCn1c(SCC(=O)N(CC)C2CCS(=O)(=O)C2)nc2cc(S(N)(=O)=O)ccc21 (centres unmarked),-5.49
8,O=C(CSc1nnc(CNC(=O)c2ccccc2)o1)NCc1ccc2c(c1)OCO2,1.73
9,N#C/C(=N\Nc1cc(Cl)cc(Cl)c1)c1nnc2n1CCCCC2,-16.2
10,Cl.NCCCC(=O)N1c2ccccc2Sc2ccc(Cl)cc21,-1.86
11,CCN1CCN(C(CNS(=O)(=O)c2ccc(C)cc2)c2cccnc2)CC1 (centres unmarked),-35.9
12,C[C@H](CCC(=O)O)[C@H]1CC[C@H]2[C@@H]3C(=O)C[C@@H]4CC(=O)CC[C@]4(C)[C@H]3CC(=O)[C@]12C,7.92
13,Cc1cc(NC(=O)c2ccccc2)n(-c2ccccc2)n1,30.8
14,Cc1ccc(CCNC(=O)C2CCN(S(=O)(=O)c3ccc4c(c3)CCC(=O)N4)CC2)cc1,3.09
15,Cn1cc(CN2CCCC(C(=O)c3nccn3C)C2)c(-c2cccc(Cl)c2)n1 (centres unmarked),-31.1
16,S=c1[nH]nc(-c2ccc(Br)cc2)n1Cc1ccccc1,9.48
17,O=C1CCC([N+](=O)[O-])C(c2ccc(Cl)cc2Cl)N1 (centres unmarked),2.4
18,COc1cc(C)c(S(=O)(=O)n2ccc(C)n2)cc1C,4.35
19,COc1ccccc1N1CCN(Cc2ccc(C(=O)O)cc2)CC1,14.4
20,O=S1(=O)c2cccc3cccc(c23)N1Cc1nnc(-c2ccccc2Br)o1,-9.83
21,COCC(C)NS(=O)(=O)c1ccc(C(=O)NCCCn2ccc3ccccc32)cc1 (centres unmarked),27.3
22,Cc1cccc(NC(=O)CC2CCC2)c1,3.28

row,SMILES,"hERG current change (%, negative = inhibition) at 10uM [%]"
1,CC1CCCN(C(=O)c2ccc(COc3ccccc3Br)cc2)C1 (centres unmarked),3.98
2,NC(=O)C1CCN(CC(=O)c2c[nH]c3ccc(F)cc23)CC1,-3.34
3,CC(C)CCNCC(=O)NC(c1ccccc1)c1ccccc1.Cl,-21.9
4,CN1C(=O)C(c2ccccc2[N+](=O)[O-])C(=O)c2ccccc21 (centres unmarked),4.68
5,C(=C\c1ccccc1)/CN1CCN(Cc2ccc3c(c2)OCO3)CC1,-43.9
6,CC1(C)Cc2ccccc2-c2nnnn21,-0.0387
7,Cc1ccc(CSCC(N)C(=O)O)cc1 (centres unmarked),12.1
8,CC(C)NC(=O)C(c1ccc(F)cc1)N(Cc1ccco1)C(=O)CCC(=O)Nc1ccccn1 (centres unmarked),0.583
9,CCn1c(C(=O)O)c(CC(=O)N(C)c2ccc(OC)cc2OC)c2ccccc21,16
10,O=C(CNC1CCCCC1)Nc1cccc(C(F)(F)F)c1,7.53
11,Cc1ccc(-c2cc(C(=O)OCC(=O)N(C)c3c(N)n(Cc4ccccc4)c(=O)[nH]c3=O)c3ccccc3n2)o1,-4.68
12,CC(C)c1ccc(NC(=O)C2CCCN(S(=O)(=O)c3cccnc3)C2)cc1 (centres unmarked),20.6
13,CC(C)C[C@H](NC(=O)N1CC(=O)Nc2ccccc21)C(=O)N[C@H](Cc1c[nH]c2ccccc12)C(=O)O,12
14,C=CCn1cnc2sc(C(=O)Nc3ccccc3OC)c(C)c2c1=O,6.42
15,O=C(COC(=O)c1ccccc1)Nc1cc(Cl)ccc1Oc1ccccc1,2.05
16,CC(NS(=O)(=O)c1ccc(Br)cc1)C(=O)NCC1CCCO1 (centres unmarked),18.9
17,COc1ccc(-c2nnn(CC(=O)c3ccc4c(c3)OCCO4)n2)cc1OC,9.3
18,O=C1CSC(c2ccccc2)N1c1cccnc1 (centres unmarked),4.34
19,CC(C)(C)C(=O)Nc1cccc(C(=O)c2cccc(NC(=O)C(C)(C)C)c2)c1,-7.46
20,O=C(CSc1nc2ccccc2s1)NCCCN1CCOCC1,-0.982
21,CCC(C)(C)C1CCc2[nH]nc(C(=O)NCC3CC3)c2C1 (centres unmarked),-6.67
22,O=C(Nc1ccc(Cl)cc1)c1cc(S(=O)(=O)Nc2ccccn2)ccc1Cl,-2.04

row,SMILES,"hERG current change (%, negative = inhibition) at 10uM [%]"
1,CC(C)(C)N1CC2([N+](=O)[O-])CN(C(C)(C)C)CC([N+](=O)[O-])(C1)C2,7.44
2,CCCCn1c(SCC(=O)N2c3ccccc3Sc3ccccc32)nc2c1c(=O)n(C)c(=O)n2C,-23.5
3,COc1ccc(S(=O)(=O)Nc2ccc(C)cn2)cc1,-5.21
4,Cc1ccccc1OCCn1c(=O)sc2ccccc21,6.79
5,CCOC(=O)[C@H]1[C@H]2COc3ccc(C)cc3[C@@H]2N2C(=O)CN(Cc3ccccc3)C(=O)[C@@]12C,-20.8
6,CCS(=O)(=O)c1ccc2c(c1)N(S(=O)(=O)c1ccc(OC)cc1)CC(C(=O)O)O2 (centres unmarked),17.7
7,O=S(=O)(NCCN1CCCC1)c1ccc(Br)cc1,-8.08
8,C=C(C)CSC1=C(C#N)C(c2ccccc2)CC(=O)N1 (centres unmarked),-5.21
9,O=C(CN1CCN(CC(=O)Nc2ccccc2Cl)CC1)Nc1ccc2c(c1)OCCO2,-68.7
10,COc1ccccc1NS(=O)(=O)c1ccc(C)c(NC(=O)NC2CCCCC2)c1,-2.19
11,Cc1ccc(C(=O)NCC(=O)OCc2nnc(-c3ccc([N+](=O)[O-])cc3)o2)s1,-67.3
12,CCCCN(C)C(=O)C1CCC(CNS(=O)(=O)c2ccc3c(c2)CC(C)N3C(C)=O)CC1 (centres unmarked),13.1
13,Cc1nn(Cc2ccccc2)c(Cl)c1/C=N/NC(=O)CNc1cccc(C(F)(F)F)c1,6.67
14,O=C(NNC(=S)NC(=O)c1ccccc1)c1ccc([N+](=O)[O-])cc1,6.61
15,CCN(CC)C(=O)c1cc(Cl)ccn1,19.5
16,COC(=O)C1=C(c2ccc(S(C)(=O)=O)cc2)C[C@@H]2CC[C@H]1N2C(=O)NCCS(C)=O (some centres unmarked),14.4
17,Cn1c(=O)c2c(nc(N3CCCCC3)n2CCSc2nc3ccccc3s2)n(C)c1=O,0.621
18,O=S(=O)(NCC(c1ccco1)N1CCN(c2ccccc2F)CC1)c1ccc(F)cc1 (centres unmarked),-11.2
19,Cc1ccc(C(=O)N2CCN(S(=O)(=O)c3ccc(Br)cc3)CC2)o1,-9.06
20,C=CCOc1ccc(/C=C2/C(=O)ON=C2C)cc1OCC,17.5
21,Clc1ccc(/C=N/Nc2nnc(Cl)c3ccccc23)cc1,1.01
22,COc1ccc(N2CCN(c3oc(COc4ccccc4)nc3C#N)CC2)cc1,-26.6

row,SMILES,"hERG current change (%, negative = inhibition) at 10uM [%]"
1,CSc1nnc(-c2ccc(F)cc2)o1,17
2,O=S(=O)(Nc1ccc(N2CCCCC2)cc1)c1ccc(F)c(F)c1,-7.75
3,COc1cc(-n2c(C)nc3cccnc32)c(Cl)cc1C(=O)O,11.4
4,O=C(Nc1cccc(S(=O)(=O)N2CCCCCC2)c1)c1cc(=O)c2ccccc2o1,-14.6
5,Cc1cccc2cc(CN(Cc3nnnn3C3CCCCC3)C3CCCC3)c3nnnn3c12,6.38
6,CCC1CCCCN1c1nc2c(C=O)c(C)nn2c2ccccc12 (centres unmarked),-12
7,O=C(O)CCCCCN=Cc1c(O)c2ccccc2oc1=O,17.9
8,CCCCN(CC)CCNC(=O)c1cc2c(C)nc3ccccc3c2o1,-53.5
9,CC1=NN(c2ccc(Cl)cc2)C(=O)C1C(c1ccccc1O)c1c(C)[nH]n(-c2ccc(Cl)cc2)c1=O (centres unmarked),5.69
10,COc1ccccc1-c1nc(-c2ccccc2)[nH]c(=O)c1C#N,10.1
11,CCCCC1(C)NC(=O)N(CC(=O)Nc2cc(S(=O)(=O)N3CCOCC3)ccc2Cl)C1=O (centres unmarked),-25.4
12,COc1ccc(C(=O)Nc2ccc(Cl)cn2)cc1S(=O)(=O)N1CCCC1,-48
13,Brc1cc(Br)c2nc(-c3cccs3)ccc2c1,12.8
14,Cc1cc(C(=O)CCC(=O)Nc2ncccc2C)c(C)s1,-8.62
15,Cc1ccc(C2c3[nH]c4ccccc4c3C[C@H]3C(=O)N(c4ccccc4C(=O)NCCCN4CCOCC4)C(=O)N23)cc1 (some centres unmarked),-54.6
16,Nc1nc(-c2cc(Cl)cc(Cl)c2OC(F)F)cs1,5
17,CS(=O)(=O)NCCNc1ncc(C(F)(F)F)cc1Cl,25.8
18,CCCN1CCN(C(=O)c2cc(COc3ccc4ncccc4c3)on2)CC1,-9.2
19,Cc1cccc(-c2nc3ccccc3c(=O)n2NC(=O)c2cccnc2Cl)c1,15.6
20,Cc1cccc(N(CC(=O)NCc2ccco2)C(=O)CCC(=O)Nc2ccccn2)c1C,-29.8
